# Test results: article PMC4336329 (PLoS ONE, 2015)
# In all, about 310,000 compounds went through this assay and about 2,200 (0.71%) showed an effect of 50% or more. Effects have a minus sign here. The list shows a part of the results.
# Target: human ether-à-go-go-related gene (hERG) potassium channel (human, UniProt Q12809)
# Experiment: primary screen, population patch clamp on CHO cells stably expressing hERG
# Sequence of human ether-à-go-go-related gene (hERG) potassium channel (Q12809 whole entry, looked up): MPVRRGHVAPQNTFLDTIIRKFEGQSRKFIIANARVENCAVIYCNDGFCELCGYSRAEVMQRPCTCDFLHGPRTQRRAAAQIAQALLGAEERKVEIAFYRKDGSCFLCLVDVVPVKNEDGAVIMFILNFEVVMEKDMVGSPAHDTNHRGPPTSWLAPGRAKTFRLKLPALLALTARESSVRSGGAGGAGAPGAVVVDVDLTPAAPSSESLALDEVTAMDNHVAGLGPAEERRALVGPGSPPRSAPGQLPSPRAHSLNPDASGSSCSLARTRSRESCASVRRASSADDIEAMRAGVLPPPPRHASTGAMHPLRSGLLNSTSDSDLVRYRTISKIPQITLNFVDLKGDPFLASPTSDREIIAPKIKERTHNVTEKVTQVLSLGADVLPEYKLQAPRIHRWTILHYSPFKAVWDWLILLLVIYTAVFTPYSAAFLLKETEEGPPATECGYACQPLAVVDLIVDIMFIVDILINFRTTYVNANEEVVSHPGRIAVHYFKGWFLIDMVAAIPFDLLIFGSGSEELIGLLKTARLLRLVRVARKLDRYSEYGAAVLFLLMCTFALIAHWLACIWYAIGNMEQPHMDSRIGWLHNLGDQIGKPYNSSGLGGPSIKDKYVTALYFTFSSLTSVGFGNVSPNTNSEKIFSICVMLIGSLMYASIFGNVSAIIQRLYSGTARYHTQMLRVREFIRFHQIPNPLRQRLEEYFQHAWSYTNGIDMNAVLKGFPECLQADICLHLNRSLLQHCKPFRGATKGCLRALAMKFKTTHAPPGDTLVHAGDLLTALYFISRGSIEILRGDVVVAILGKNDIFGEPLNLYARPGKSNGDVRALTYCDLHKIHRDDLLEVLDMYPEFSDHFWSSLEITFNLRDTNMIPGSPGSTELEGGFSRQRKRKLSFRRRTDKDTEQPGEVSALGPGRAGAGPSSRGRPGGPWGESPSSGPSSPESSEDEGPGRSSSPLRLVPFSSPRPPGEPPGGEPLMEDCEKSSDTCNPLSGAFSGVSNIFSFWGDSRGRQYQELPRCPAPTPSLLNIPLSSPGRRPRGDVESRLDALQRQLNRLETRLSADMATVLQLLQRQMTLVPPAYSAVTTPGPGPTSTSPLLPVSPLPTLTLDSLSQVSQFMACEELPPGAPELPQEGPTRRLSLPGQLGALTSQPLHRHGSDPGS
row,SMILES,"hERG current change (%, negative = inhibition) at 1uM [%]"
1,COc1cc2c(cc1OC)C(C)=NCC2,11
2,Cc1ccc(N2CCN(C(=S)c3ccc(-c4cccc([N+](=O)[O-])c4)o3)CC2)cc1,12.4
3,COc1ccccc1NC(=O)c1cc(OC)c(OC)cc1[N+](=O)[O-],13.5
4,COc1ccc(CNc2cccc(C)n2)c(O)c1,7.06
5,N#Cc1ccccc1OCC(=O)Nc1ccc2c(c1)OCCO2,5.64
6,COc1cc(C(=O)NCc2ccccc2)cc(Br)c1OC,11.3
7,CC(=O)c1ccc(NS(=O)(=O)c2ccc3c(c2)CCC(=O)N3)cc1,17.6
8,CC(=O)Nc1ccc(-c2cc3ccccc3o2)cc1,4.1
9,O=C(Nc1nc(-c2ccccc2)cs1)C1CCCO1 (stereo not shown),-0.939
10,O=C(O)C1CCCCC1C(=O)NCc1ccncc1 (stereo not shown),6.68
11,COc1cc(/C=C(\C#N)C(=O)Nc2cccc3ncccc23)ccc1O,9
12,COc1ccc(NC(=O)CN(c2ccccc2F)S(=O)(=O)c2ccc(C)cc2)c(OC)c1,8.92
13,COc1ccc(CCNC(=O)C(C)n2nc(C)n3c(cc4occc43)c2=O)cc1OC (stereo not shown),12.2
14,CCOc1ccc2oc(C(=O)NCC3CCCO3)c(C)c2c1 (stereo not shown),-3.58
15,Cc1cc(NC(=O)C2CCN(C(=O)c3ccco3)CC2)ccc1Br,-6.61
16,CN1CCN(CCC(=O)N2c3ccccc3Sc3ccc(C(F)(F)F)cc32)CC1.Cl,3.28
17,Cc1nc2ccccc2c(=O)n1-c1ccc(F)cc1,1.72
18,O=C(NC1CCCCC1)N1CCN(c2ccc(Cl)cc2)CC1,-4.85
19,N#C/C(C(N)=O)=C1/SC(Cc2ccc(F)cc2)C(=O)N1c1ccccc1 (stereo not shown),12.3
20,O=C(Cc1ccccc1)NCC(=O)OCC(=O)c1ccccc1Cl,17.5

row,SMILES,"hERG current change (%, negative = inhibition) at 1uM [%]"
1,COC(=O)c1ccc(COC(=O)CNC(=O)c2ccco2)cc1,12.4
2,CCNc1nc(NCc2ccccc2)nc(SCC(N)=O)n1,8.2
3,O=C(CSc1nnc(CNC(=O)C23CC4CC(CC(C4)C2)C3)n1-c1ccc(F)cc1)Nc1ccccc1,15.5
4,CC1CCCN(C(=O)c2nn(C)c3c2CS(=O)(=O)c2ccccc2-3)C1 (stereo not shown),8.88
5,O=C(CC1C(=O)N(c2ccccc2)C(=S)N1c1ccccc1)c1ccccc1 (stereo not shown),8.53
6,COc1ccc(CCNc2nncc(=O)[nH]2)cc1OC,7.14
7,Cc1ccc(S(=O)(=O)NC(=NCC(=O)O)c2ccc(F)cc2)cc1,11.2
8,CN(C)C(=O)c1cc(C(=O)c2ccccc2F)c[nH]1,9.33
9,CCN1C(=O)[C@@H]2[C@H](C1=O)[C@@H]1C(=O)Nc3ccccc3C(=O)N1[C@@H]2c1cccc(OC)c1,-2.68
10,CC(=O)Nc1ccc(N(C(=O)CNC(=O)c2ccco2)C(C(=O)NCC2CCCO2)c2ccccc2)cc1 (stereo not shown),10.9
11,O=C(NCCCN1CCOCC1)C(=O)NCC1OCCN1S(=O)(=O)c1ccc(F)cc1 (stereo not shown),7.92
12,COC(=O)c1ccc(CSc2nc(N3CCOCC3)c3c(c2C#N)CC(C)(C)OC3)o1,3.72
13,CCCC(O)(CCC)C(=O)NN(C(=O)CCl)c1cccc(C)c1,3.61
14,COc1cc2nc(SCc3ccc(Cl)cc3Cl)n(Cc3cccs3)c(=N)c2cc1OC,9.95
15,CCC1(C)Cc2ccccc2-c2nc(SC)[nH]c(=O)c21 (stereo not shown),10.9
16,Oc1cccc2ccc(/C=C/c3ccc(Br)s3)nc12,4.97
17,CCOC(=O)/C=C/C(=O)OCC(=O)Nc1ccc(Cl)cn1,15.2
18,CN(CCOc1ccc(Cl)cc1)c1ccc(S(=O)(=O)N2CCCCC2)cn1,-10.5
19,CSC1=N/C(=C\c2c(F)cccc2Cl)C(=O)S1,-10.3
20,CCOC(=O)NC(Nc1ncccn1)(C(F)(F)F)C(F)(F)F,9.03

row,SMILES,"hERG current change (%, negative = inhibition) at 1uM [%]"
1,C=CCN1C(=O)c2ccc(C(=O)N(CC(C)C)c3c(N)n(CCCC)c(=O)[nH]c3=O)cc2C1=O,21
2,COc1cccc(CNC(=O)Cn2c(=O)oc3cc(S(=O)(=O)N4CCCCC4)ccc32)c1,11.4
3,COc1ccc(/C(C)=N/NS(=O)(=O)c2ccccc2)c(OC)c1,10.9
4,CCc1ccc(CN2C(=O)CCC2(C)C(=O)NC2CCCC2)cc1 (stereo not shown),-1.47
5,COc1ccc(Br)cc1CN1C(=O)NC2(CCCCCC2)C1=O,6.05
6,COc1ccccc1C(=O)Nc1cccc(NC(=O)c2ccccc2C)c1,16.2
7,CC1CCC(NCC(=O)Nc2cccc(S(N)(=O)=O)c2)CC1.O=C(O)C(=O)O (stereo not shown),13.8
8,COc1ccc(CN2CCN(Cc3c[nH]c4ccccc34)CC2)cc1.O=C(O)C(=O)O,-27.2
9,Cc1cccc(-c2noc(CNC(=O)c3ccco3)n2)c1,15.4
10,Cc1nnc(Nc2ccc(C(=O)O)cc2)[nH]c1=O,10
11,Cc1cc(/C=C2\SC(=S)NC2=O)c(C)n1C,9.47
12,Cc1ccc(-c2c(C(=O)N/N=C/c3c[nH]c4ccccc34)nnn2-c2nonc2N)cc1,16.1
13,Cc1nnc(NC(=O)c2c(F)cccc2F)s1,18.5
14,CSc1ncc2c(n1)-c1cc(C)ccc1SC2,17.4
15,Cc1cccc(NC(=S)NNC(=O)c2nn(C)cc2Cl)c1,6.26
16,O=C(CN(Cc1cccs1)C(=O)CCC(=O)Nc1nccs1)NCc1ccccc1,-0.952
17,Cc1ccc(NC(=O)c2sc(C)nc2C)c(C)c1,2.9
18,Cc1ccc(C)c(C(=O)COc2ncnc3ccccc23)c1,11.8
